According to PubChem BioAssay AID686971 (National Center for Advancing Translational Sciences (NCATS), 2013):
In all, about 360,000 compounds went through this assay and about 7,500 (2.1%) were called active. The shares of active, inactive and inconclusive entries below differ from those in the screen. Calls follow the shape of the dose curve; as a rule, active = well fitted cell-killing curve with a large enough effect; inconclusive = small, poorly fitted or top-dose-only effect, or effect the other way, or another doubt; inactive = no such curve, though single readings can be large or run the other way. Potencies of inconclusive entries are left out as doubtful fits.

assay: qHTS for induction of synthetic lethality in tumor cells producing 2HG: qHTS for the HT-1080-IDH1KD cell line; conditions: HT-1080 IDH1 knockdown viability, ATP luminescence, 48 h; activity, negative = toxicity: at 46.1 µM (top of the series) unless noted;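 as to activity, negative = toxicity: 0% = DMSO wells and -100% = cell-free medium wells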
Summary of the method: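 Cytotoxicity counter-line: IDH1KD HT-1080, 48 h, CellTiter-Glo. Curves classed by r2, magnitude and activity.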
Potency is read from the fitted curve at half-maximal effect; tags tell the direction and shape of the fitted curve.

Compound	Potency	activity, negative = toxicity
CCc1nn(CCCC(=O)NCc2ccc(OC(C)C)cc2)c(=O)c2cc3occc3n12	active: 10.3 µM	–
NC(=O)CC(NC(=O)c1cccc(Br)c1)c1ccc(N2CCN(c3ccc(F)cc3)CC2)c([N+](=O)[O-])c1 (stereo not given)	inactive	–
CC1=CC2C(C(O)CC3(C)C2CC(C)C32OCOC23COCO3)C2(C)C/C(=C\O)C(=O)C=C12 (stereo not given)	active: 7.31 µM	–
C=C(C)COc1ccc(-c2[nH]ncc2-c2ccccc2)c(O)c1	inconclusive [cytotoxic, single point]	–
O=C(COc1ccccc1[N+](=O)[O-])OCCCOC(=O)COc1ccccc1[N+](=O)[O-]	inactive	–
CCN(CC)C(=O)C1=C(C)N(CCCN2CCCC2=O)C(=O)C(CC(=O)NC(c2ccccc2)c2ccccc2)C1 (stereo not given)	inactive	–
CC1(C(=O)Nc2ccc3c(c2)OCO3)CCN1Cc1ccccc1OC(F)F (stereo not given)	inactive	–
Cc1nc(NC(=O)c2ccc(F)cc2)sc1C(=O)Nc1ccc2c(c1)CCC2	inactive	–
O=C(NCCC1=CCCCC1)c1ccc(Cl)c(S(=O)(=O)N2CCCCC2)c1	inconclusive [cytotoxic, partial curve]	–
Cc1cc(-c2nn(-c3ccccc3F)cc2CN2CCN(c3ccncc3)CC2)c(C)s1	inconclusive [cytotoxic, single point]	–
O=C(Nc1ccn(Cc2c(F)c(F)cc(F)c2F)n1)c1ccc(COc2cc(Cl)ccc2Cl)o1	inconclusive [cytotoxic, single point]	–
COCCC1CCCCN1C(=O)c1cc(COc2ccc(-n3cncn3)cc2)on1 (stereo not given)	inconclusive [cytotoxic, partial curve, poor fit]	–
O=C(CNC1CCCCC1)Nc1ccc(S(=O)(=O)N2CCCCC2)cc1	inconclusive [cytotoxic, partial curve]	–
Cc1ccc(NC(=S)NNC(=O)c2ccccc2OC(F)F)cc1	inconclusive [cytotoxic, partial curve]	–
COc1ccc(C(=O)Nc2ccccc2C(=O)NCc2cccnc2)cc1	inconclusive [cytotoxic, single point]	–
CCOc1ccccc1CNC(=O)C1CCCN(c2nnc(C)c3c(C)n(-c4ccccc4)nc23)C1 (stereo not given)	active: 18.4 µM	–
CCN(c1ccc(NC(=O)COC(=O)/C=C/c2cccs2)cc1)C(C)C	–	inconclusive: 30.5%
O=C(COC(=O)c1ccccc1Br)NC(=O)NCc1ccccc1	inactive	–
COC(=O)C1OCOC2C(C(=O)OC)OCOC12 (stereo not given)	inactive	–
COc1ccc(Br)cc1/C=C/C(=O)Nc1ccc(C)cc1	inconclusive [cytotoxic, partial curve]	–
